# Data published in the supplement of paper PMC8728848.
# The other results are listed elsewhere or left out.
# Tests used:
# Assay in all cases: glycan array binding signal (z-score within array); higher = stronger binding
# Conditions in all cases: glycan notation: IUPAC condensed, linker removed
# Neu5Ac(a2-3)GalNAc = biological target: Neu5Ac(a2-3)GalNAc
# Outline: (§1)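 Columns mapping to the same glycan were averaged after glycan names were converted to IUPAC-condensed notation. The data come from 3228 arrays in the Consortium for Functional Glycomics database, limited to those with an available protein sequence. Binding is reported as a within-array Z-score averaged across arrays of one protein sequence and across linkers.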
# [1] = biological target: Neu5Ac(a2-3)[GalNAc(b1-4)]Gal(b1-4)Glc
# Outline: as §1
# [2] = biological target: Neu5Ac(a2-3)[GalNAc(b1-4)]Gal(b1-4)GlcNAc
# Outline: as §1
# [3] = biological target: Neu5Ac(a2-3)[Neu5Ac(a2-6)]GalNAc
# Outline: as §1
# Neu5Ac(a2-6)Gal = biological target: Neu5Ac(a2-6)Gal
# Outline: as §1
# Neu5Ac(a2-6)Gal(b1-4)Glc = biological target: Neu5Ac(a2-6)Gal(b1-4)Glc
# Outline: as §1
# [4] = biological target: Neu5Ac(a2-6)Gal(b1-4)GlcNAc
# Outline: as §1
# [5] = biological target: Neu5Ac(a2-6)Gal(b1-4)GlcNAc(b1-3)Gal(b1-4)GlcNAc
# Outline: as §1
# [6] = biological target: Neu5Ac(a2-6)Gal(b1-4)GlcNAc(b1-3)Gal(b1-4)[Fuc(a1-3)]GlcNAc(b1-3)Gal(b1-4)[Fuc(a1-3)]GlcNAc
# Outline: as §1
# [7] = biological target: Neu5Ac(a2-6)Gal(b1-4)GlcNAc6S
# Outline: as §1
# Neu5Ac(a2-6)GalNAc = biological target: Neu5Ac(a2-6)GalNAc
# Outline: as §1
# Neu5Ac(a2-8)Neu5Ac = biological target: Neu5Ac(a2-8)Neu5Ac
# Outline: as §1
# [8] = biological target: Neu5Ac(a2-8)Neu5Ac(a2-3)Gal(b1-4)Glc
# Outline: as §1
# [9] = biological target: Neu5Ac(a2-8)Neu5Ac(a2-3)[GalNAc(b1-4)]Gal(b1-4)Glc
# Outline: as §1
# [10] = biological target: Neu5Ac(a2-8)Neu5Ac(a2-8)Neu5Ac
# Outline: as §1
# [11] = biological target: Neu5Ac(a2-8)Neu5Ac(a2-8)Neu5Ac(a2-3)Gal(b1-4)Glc
# Outline: as §1
# [12] = biological target: Neu5Ac(a2-8)Neu5Ac(a2-8)Neu5Ac(a2-3)[GalNAc(b1-4)]Gal(b1-4)Glc
# Outline: as §1
# Neu5Ac(b1-6)GalNAc = biological target: Neu5Ac(b1-6)GalNAc
# Outline: as §1
# [13] = biological target: Neu5Ac(b2-6)Gal(b1-4)GlcNAc
# Outline: as §1
# [14] = biological target: Neu5Ac9Ac(a2-6)Gal(b1-4)GlcNAc
# Outline: as §1
# [15] = biological target: Neu5Gc(a2-3)Gal(b1-3)GlcNAc
# Outline: as §1
# [16] = biological target: Neu5Gc(a2-3)Gal(b1-3)[Fuc(a1-4)]GlcNAc
# Outline: as §1
# Neu5Gc(a2-3)Gal(b1-4)Glc = biological target: Neu5Gc(a2-3)Gal(b1-4)Glc
# Outline: as §1
# [17] = biological target: Neu5Gc(a2-3)Gal(b1-4)GlcNAc
# Outline: as §1
# [18] = biological target: Neu5Gc(a2-3)Gal(b1-4)[Fuc(a1-3)]GlcNAc
# Outline: as §1
# [19] = biological target: Neu5Gc(a2-6)Gal(b1-4)GlcNAc
# Outline: as §1
# Neu5Gc(a2-6)GalNAc = biological target: Neu5Gc(a2-6)GalNAc
# Outline: as §1
binder,measurement,setting,value
CGL3 (Coprinopsis cinerea) (protein) MGHHHHHHHHSGFHILRLESTVDLSEPLKDNGIIVFQSDKLDLEPSPNLGPTGIDNTNVNLINAKGDVLLHIGIRRRENAFVFNSIPYGESRGPEERIPLEGTFGDRRDPSITVFDHPDRYQIMIDYKTVYYYKKRLEGRCEKVSYKINEGQTPPFSDVLGVTVLYFANVMPRAN,glycan array binding signal (z-score),Neu5Ac(a2-3)GalNAc,-0.195
same,glycan array binding signal (z-score),[1],-0.225
same,glycan array binding signal (z-score),[2],-0.222
same,glycan array binding signal (z-score),[3],-0.164
same,glycan array binding signal (z-score),Neu5Ac(a2-6)Gal,-0.204
same,glycan array binding signal (z-score),Neu5Ac(a2-6)Gal(b1-4)Glc,-0.211
same,glycan array binding signal (z-score),[4],-0.219
same,glycan array binding signal (z-score),[5],-0.21
same,glycan array binding signal (z-score),[6],-0.155
same,glycan array binding signal (z-score),[7],-0.208
same,glycan array binding signal (z-score),Neu5Ac(a2-6)GalNAc,-0.195
same,glycan array binding signal (z-score),Neu5Ac(a2-8)Neu5Ac,-0.211
same,glycan array binding signal (z-score),[8],-0.214
same,glycan array binding signal (z-score),[9],-0.128
same,glycan array binding signal (z-score),[10],-0.221
same,glycan array binding signal (z-score),[11],-0.219
same,glycan array binding signal (z-score),[12],-0.221
same,glycan array binding signal (z-score),Neu5Ac(b1-6)GalNAc,-0.205
same,glycan array binding signal (z-score),[13],-0.185
same,glycan array binding signal (z-score),[14],-0.205
same,glycan array binding signal (z-score),[15],-0.191
same,glycan array binding signal (z-score),[16],-0.225
same,glycan array binding signal (z-score),Neu5Gc(a2-3)Gal(b1-4)Glc,-0.189
same,glycan array binding signal (z-score),[17],-0.197
same,glycan array binding signal (z-score),[18],-0.215
same,glycan array binding signal (z-score),[19],-0.212
same,glycan array binding signal (z-score),Neu5Gc(a2-6)GalNAc,-0.197
